Consider 24 molecules from publication PMC13083723 (Patterns, 2026).

Each structure is given as a SMILES string. About 190 (3.5%) of roughly 5,400 compounds showed an effect of 50% or more. This is one part of the list.

The assay concerns Vero-E6. Description: primary screen, phospholipidosis by LipidTOX staining; higher = more effect of the substance. To be noted: 10 µM. On the procedure:
To measure drug-induced PLD in Vero-E6 cells, we used the HCS LipidTOX Red Phospholipidosis Detection Reagent (Invitrogen, #H34351), which is non-toxic to cell growth and remains well retained after aldehyde fixation. In this setup, compounds (at 10 μM concentration) and controls (amiodarone: 10 μM concentration; DMSO: 0.1 v/v %) were added to clear-bottom, 384-well plates (PhenoPlate 384-well, black, optically clear flat bottom, tissue-culture treated, Revvity #6057302) using the Echo Liquid Handler (Labcyte).
As to `C[C@H]1CCC/C=C/[C@@H]2C[C@H](O)C[C@H]2[C@H](O)/C=C/C(=O)O1`, the result_ITMP is reported as -2.38%.

`C=CC[C@]1(O)CC[C@H]2[C@@H]3CCC4=CCCC[C@@H]4[C@H]3CC[C@@]21C`: the result_ITMP is 0.46%. Then `C=CC[C@]1(O)CC[C@H]2[C@@H]3CCC4=CC(=O)CCC4=C3C=C[C@@]21C`, with 1.92%; and `CC[C@H]1CN2CCC1C[C@@H]2[C@@H](O)c1ccnc2ccc(OC)cc12` (stereo partly drawn), with 6.8%; and `C#C[C@]1(O)CC[C@H]2[C@@H]3CCC4=CC(=O)CC[C@]4(C)[C@H]3CC[C@@]21C`, with -7.32%. Regarding `Oc1ccc2c3c1O[C@H]1c4oc5ccccc5c4C[C@@]4(O)[C@@H](C2)N(CC2CC2)CC[C@]314`, the result_ITMP is 6.87%. Then `CCCOC(C(=O)OC1CCN(C)CC1)(c1ccccc1)c1ccccc1`, with 63.8%. Then `CC[C@H]1[C@@H]2C[C@H]3[C@@H]4N(C)c5ccccc5[C@]45C[C@@H]([C@H]2[C@H]5O)N3[C@@H]1O`, with -3.79%. Take `Cc1onc(O)c1C[C@H](N)C(=O)O` [R4A_0004356_001 / SPE_K92493880]: the result_ITMP is listed as -0.72%. For `CC(=O)O[C@H]1C[C@H](O[C@H]2[C@@H](O)C[C@H](O[C@H]3[C@@H](O)C[C@H](O[C@H]4CC[C@@]5(C)[C@H](CC[C@@H]6[C@@H]5C[C@@H](O)[C@]5(C)[C@@H](C7=CC(=O)OC7)CC[C@]65O)C4)O[C@@H]3C)O[C@@H]2C)O[C@H](C)[C@H]1O[C@@H]1O[C@H](CO)[C@@H](O)[C@H](O)[C@H]1O`, the result_ITMP was -8.98%. Then `COc1cc2c(cc1OC)[C@@]13CCN4CC5=CCO[C@H]6CC(=O)N2[C@H]1[C@H]6[C@H]5C[C@H]43`, with 1.12%.

In the case of `CN1[C@@H]2CC[C@H]1C[C@@H](OC1c3ccccc3CCc3ccccc31)C2`, the result_ITMP was determined as 45.5%. Then `C[C@@H](N)C(=O)N[C@@H](CO)C(=O)N[C@H](C(=O)N[C@H](C(=O)N[C@H](C(=O)N[C@@H](CC(N)=O)C(=O)N[C@@H](Cc1ccc(O)cc1)C(=O)N[C@H](C(N)=O)[C@@H](C)O)[C@@H](C)O)[C@@H](C)O)[C@@H](C)O`, with 0.21%; and `C[C@@H]1CN([C@H]2CC[C@](C#N)(c3ccc(F)cc3)CC2)CC[C@]1(C(=O)O)c1ccccc1`, with -9.01%; and `CN(CCc1ccc(Cl)c(Cl)c1)CCN1CCCC1`, with 51.3%. In the case of `CCN1C[C@]2(COC(=O)c3ccccc3N3C(=O)C[C@H](C)C3=O)CC[C@H](OC)[C@@]34[C@@H]5C[C@H]6[C@H](OC)[C@@H]5[C@](O)(C[C@@H]6OC)[C@@](O)([C@@H](OC)[C@H]23)[C@@H]14`, the result_ITMP stood at 0.37%. Consider `Oc1ccc2c3c1O[C@H]1c4[nH]c5ccccc5c4C[C@@]4(O)[C@@H](C2)N(CC2CC2)CC[C@]314`, for which the result_ITMP is 37.4%. Then `CO[C@H]1[C@H](O)[C@H](O[C@H]2CC[C@@]3(C=O)[C@H](CC[C@@H]4[C@@H]3CC[C@]3(C)[C@@H](C5=CC(=O)OC5)CC[C@]43O)C2)O[C@@H](C)[C@@H]1O`, with -16.8%; and `CC1(N2CCC(n3c([C@@H]4CCCNC4)nc4ccccc43)CC2)CCCCCCC1`, with 46%; and `CC(=O)OC[C@]12CCC(C)=C[C@H]1O[C@@H]1[C@H](O)[C@@H](OC(C)=O)[C@@]2(C)[C@]12CO2`, with -25.8%. As to `COC(=O)C[C@](O)(CCC(C)(C)O)C(=O)O[C@@H]1C(OC)=C[C@]23CCCN2CCc2cc4c(cc2[C@H]13)OCO4`, the result_ITMP is -10.1%. Then `CN1C[C@H](CNC(=O)OCc2ccccc2)C[C@@H]2c3cccc4c3c(cn4C)C[C@H]21`, with 61.8%; and `C[N@+]1(CC2CC2)CC[C@]23c4c5ccc(O)c4O[C@H]2C(=O)CC[C@@]3(O)[C@H]1C5`, with 0.23%; and `CN1[C@@H]2CC[C@H]1C[C@@H](OC(=O)c1cc(Cl)cc(Cl)c1)C2`, with 9.65%.
